# The whole screen tested about 48,000 compounds, of which about 120 (0.25%) were called active. About 4% were inconclusive and are not listed. Calls come from the whole dose curve; as a rule, active = well fitted activation curve with a large enough effect; inconclusive = small, poorly fitted or top-dose-only effect, or another doubt; inactive = no such curve, though single readings can be large or run the other way. Only a part is listed here, and it is no random draw. Where no call is shown, the source filed none.
# Test: Primary qHTS for Identification of Small Molecule Activators of Huntingtin-Antisense Promoter Activity; note: nearly all actives have a fitted effect of over 55% in size
# Details: HEK293 HTT-AS promoter firefly luciferase reporter, 24 h; activity change, positive = activation: at 57.5 µM (top of the series), percent change from vehicle, -100% = no light
# From the text: Assay Provider: Russell L. Margolis M.D.
# Department Neurology, Johns Hopkins University School of Medicine, Baltimore, MD
# Huntington's Disease (HD) is a neurodegenerative disorder caused by a CAG repeat expansion in exon 1 of huntingtin (HTT). While there are currently no disease-modifying treatments for HD, recent efforts have focused on development of nucleotide-based therapeutics to lower HTT expression. As an alternative to siRNA or oligonucleotide methods, we hypothesized that suppression of HTT expression might be accomplished by small molecules that either (1) directly decrease HTT expression by suppressing HTT promoter activity or (2) indirectly decrease HTT expression by increasing the promoter activity of HTT-AS, the gene antisense to HTT that appears to inhibit expression of HTT.
# We developed and employed a high throughput screen for modifiers of HTT and HTT-AS promoter activity using luminescent reporter HEK293 cells; of the 52,041 compounds tested, we identified 898 replicable hits. We used a rigorous stepwise approach to assess compound toxicity and the capacity of the compounds to specifically lower huntingtin protein in 5 different cell lines, including HEK293 cells, HD lymphoblastoid cells, mouse primary neurons, HD iPSCs differentiated into cortical-like neurons, and HD hESCs. We found no compounds which were able to lower huntingtin without lowering cell viability in all assays, though the potential efficacy of a few compounds at non-toxic doses could not be excluded.
# SEQUENCE No. (1, 2, 3, etc.); […] (e.g., Cells, Incubation, Reagent, etc.); VALUE and DESCRIPTION.
# 1; Reagent; 4 uL; 2,500 Hek293 luciferase reporter cells per wells
# 3; Compound; 23 nL; Control inhibitor / compound library
# 5; Reagent; 2.5 uL; Firefly Luc reagent; Dual-Glo Luciferase Reporter Assay System (Promega)
# 6; Time; 10 min; room temperature incubation
# 7; Detection; Luminescence; FLuc
# NOTES (numbers refer to sequence above)
# 1; High-throughput screening, measuring luminescence from a Hek293 luciferase reporter, was performed in 1,536 well white-walled tissue-culture treated plates. 2,500 cells were plated in 4 µL of Opti-MEM per well using a Multidrop Combi Reagent Dispenser (ThermoFisher).
# 2; Assay plates were cultured for 24 hours.
# 3; Control inhibitor (PTC124; final concentration of 50 uM) and compound library (at final concentrations of 460 nM - 57.5 uM) were added to the assay plate using the Kalypsis Pintool Robotic System equipped with 1536 pinheads.
# 4; Cells were then incubated for 24 hours at 37 degrees C prior to luminescence measurements.
# 5; In all cases, luminescence was measured using the Dual-Glo Luciferase Reporter Assay System (Promega) following the manufacturer's instructions.
# 6; Room temperature incubation.
# 7; Luminescence signal was obtained using the PerkinElmer ViewLux plate reader. Results were normalized to vehicle control (0% activity) and zero RLU (-100% activity).
# Potency is the fitted concentration of half-maximal effect.
SMILES,"activity change, positive = activation",Potency
CC(C)C[C@H](NC(=O)CNC(=O)c1cc(Cl)ccc1Cl)B1OC(=O)CC(CC(=O)O)(C(=O)O)O1 (stereo partly drawn),inactive: -46.8%,–
COC(=O)c1cc2oc3ccccc3c2n1Cc1nc(-c2cccc(C)c2)oc1C,13.4%,–
CCOc1ccc(S(=O)(=O)Nc2cc3c(C(=O)OC)c(COC)oc3c3ccccc23)cc1,-28.5%,–
COc1ccc(S(=O)(=O)N(CC(=O)Nc2cc(Cl)ccc2C)Cc2ccccc2)cc1OC,-34.8%,–
COc1ccc(NCc2cc3cc4c(cc3n(CC(=O)Nc3ccc(C)c(C)c3)c2=O)OCO4)cc1,inactive: 15.6%,–
COc1ccc(N2C(=O)Cc3cc(OC)c(OC)cc3C2c2ccc(F)cc2)cc1 (stereo not drawn),-17.3%,–
COc1ccc(OC)c(CNC(=O)C2CCCCN2S(=O)(=O)c2ccc(F)cc2)c1 (stereo not drawn),-17.6%,–
COc1ccc(CCN2C(=O)CN(C3CCCCCC3)C(=O)C2c2ccc(Cl)cc2)cc1OC (stereo not drawn),-23%,–
COc1cccc(CNC(=O)c2ccc3nc(CCc4ccccc4)oc3c2)c1OC,inactive: 26.7%,–
CCC(=O)Nc1ccc(-c2nc3ncccc3o2)cc1C,–,active: 11.2 µM
CC(C)c1ccc2oc(-c3ccc(Cl)c(NC(=O)Cc4ccccc4)c3)nc2c1,-69.9%,–
Cc1cccc(-c2nc(CSCC(=O)N3CCN(c4ccccc4)CC3)c(C)o2)c1,inactive: -30%,–
O=C(Nc1cc(Cl)cc2c1[nH]c1cnccc12)c1cccnc1,inactive: -41.1%,–
COc1ccc(CCNC(=O)c2cnc3sc(N4CCC(C)CC4)nn3c2=O)cc1OC,5.23%,–
Cc1cc(C)cc(NC(=O)C(=O)NC(C)c2ccccc2)c1 (stereo not drawn),0.878%,–
COc1ccc(-c2cc(C(F)(F)F)nc(SCCC(=O)Nc3ccc(O)cc3)n2)cc1,inactive: -37.7%,–
COc1ccc(CCNC(=O)c2cnc3sc(N4CCOCC4)nn3c2=O)cc1OC,4.16%,–
O=C(NCCc1ccccc1)c1cc(-c2cccc(Cl)c2)on1,12.5%,–
CC1CCN(c2ccc(-c3cccc(NS(=O)(=O)c4cccs4)c3)nn2)CC1,44.8%,–
CCCCOc1ccc(CNC(=O)c2cnc3sc(N4CCC(C)CC4)nn3c2=O)cc1,-2.51%,–
COc1ccccc1CNC(=O)CCS(=O)(=O)c1ccc2c(c1)CC(C)N2C(=O)C1CC1 (stereo not drawn),-14.9%,–
COc1ccccc1CNC(=O)CCc1c(C)nn(-c2ccc(N3CCCC3)nn2)c1C,-0.345%,–
Cc1ccc(CNC(=O)CCc2c(C)c3cc4c(C)coc4cc3oc2=O)cc1,5.39%,–
COc1ccc(C2(N3CCN(c4cc(C)ccc4C)CC3)C(=O)c3ccccc3C2=O)cc1,-13.1%,–

SMILES,"activity change, positive = activation",Potency
Cc1ccc(C)c(N2CCN(C(=O)CCc3c(C)nn(-c4ccc(N5CCCC5)nn4)c3C)CC2)c1,-30.6%,–
COc1ccccc1C(=O)Nc1ccccc1C(=O)OCc1cc(=O)n2c(C)csc2n1,inactive: -17.3%,–
COC(=O)c1ccc(NC(=O)CC2C(=O)N(c3cccc(C)c3)C(=O)N2Cc2ccco2)cc1 (stereo not drawn),-5.13%,–
COc1ccc(NC(=O)CCn2nc(-c3ccc(Cl)cc3)c3ccccc3c2=O)cc1,-16.9%,–
Cc1ccccc1Nc1c(-c2ccc(N3CCOCC3)cc2)nc2cccc(C)n12,inactive: 27.2%,–
O=C(CCS(=O)(=O)c1ccc(Br)s1)Nc1cc(C(F)(F)F)cc(C(F)(F)F)c1,inactive: -48%,–
O=C(NCc1ccccc1)NC1COc2ccccc2C1 (stereo not drawn),inactive: 14.4%,–
COc1cc(C2CC(=O)Nc3ccc4ccccc4c32)ccc1OC(=O)C(C)C (stereo not drawn),-22.2%,–
N#Cc1nc(/C=C/c2ccc(F)cc2)oc1N1CCCCCC1,inactive: -20.1%,–
O[C@@H](COc1cccc2ncccc12)CN1CCN(C2c3ccccc3[C@@H]3[C@H](c4ccccc42)C3(F)F)CC1 (stereo partly drawn),inactive: -34.1%,–
CCCc1cc(=O)[nH]c(Nc2cc(Cl)cc(Cl)c2)n1,-56.2%,–
Cc1nn(Cc2ccc(F)cc2)c(C)c1NC(=O)c1noc2c1CCc1ccccc1-2,-49%,–
O=C(c1cc(-c2cccc(Cl)c2)on1)N1CCCCC1,-9.37%,–
Cc1ccc(Cl)cc1N1CCN(C(=O)C2CCN(S(=O)(=O)Cc3ccccc3)CC2)CC1,-16%,–
COC(=O)c1ccccc1NC(=O)c1ccc(-c2nc(COc3ccccc3)c(C)o2)cc1,-7.11%,–
Cc1ccc(Cn2c(CCCNC(=O)c3ccco3)nc3ccccc32)cc1,-6.89%,–
CCc1nn(-c2ccccc2)c2nc(-c3ccc(O)cc3)c3cc(OC)c(OC)cc3c12,1.38%,–
O=C(NCc1ccc(F)cc1)C1CCCCN1S(=O)(=O)c1ccc(F)cc1 (stereo not drawn),-12.2%,–
CCOC(=O)c1cc(C)n(CC2CCC(C(=O)Nc3ccc(C)cc3)CC2)c1C (stereo not drawn),-16.6%,–
CCCN1CCN(CCCNC(=O)c2cnn(-c3ccc(C)cc3)c2-n2cccc2)CC1,-0.463%,–
CCc1ccccc1NC(=O)CCCN1C(=O)COc2ccc(C)cc21,inactive: -13.8%,–
CCOc1ccc(C(C)C)cc1S(=O)(=O)Nc1cccc(-c2ccc(N3CCOCC3)nn2)c1,-6.88%,–
CCCCN(CC)c1ncnc2c1sc1nc(N3CCOCC3)c3c(c12)CCCC3,1.65%,–
CC(C)(C)c1ccc(OCCSc2nc(-c3cccs3)nc3cc(=O)[nH]n23)cc1,-8.8%,–
